About 400 (5.1%) of roughly 7,900 compounds showed an effect of 50% or more. The list shows a part of the results.

Chain of Parkinson's disease protein 7 (PARK7/DJ1) (Q99497 whole entry, looked up, the tested form may be a part): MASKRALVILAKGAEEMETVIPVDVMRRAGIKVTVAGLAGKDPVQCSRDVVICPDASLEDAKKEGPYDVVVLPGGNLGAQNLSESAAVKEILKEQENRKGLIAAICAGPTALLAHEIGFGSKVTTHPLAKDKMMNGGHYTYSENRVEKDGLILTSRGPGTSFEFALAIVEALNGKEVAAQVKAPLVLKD

The target in the assay is Parkinson's disease protein 7 (PARK7/DJ1) (human, UniProt Q99497). Description: primary screen, percent inhibition; read as competition with a fluorescent probe by fluorescence polarization; higher = more effect of the substance. Conditions: 100 µM. The essentials:
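Covalent fragments at 100 μM final were incubated 2 h with 0.2 μM PARK7, then 20 nM probe JYQ-107 added for a further 2 h. Fluorescence polarization read at 480/520 nm; relative FP loss versus reference controls gave remaining enzyme activity.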
Turning to `CCCNC(=O)C(C#N)=Cc1ccnc(O)c1`, the Inhibition % is recorded as 9.15%.
Consider `C=CC(=O)N1CCN(C(=O)CCOC)CC1`, for which the Inhibition % came to 5.99%.
To `NCC1CC2(CC(=O)N2)C1` (stereo not shown) belongs 4.98%; to `O=C(CN1CSCC1=O)Nc1ccc2c(c1)B(O)OCC2`, 7.53%; to `C=CC(=O)NCC1CCc2ccccc21` (stereo not shown), 1.96%.
To `CCc1nnc(CN(C#N)c2ccc(F)cc2)o1` belongs 13.8%; to `C=CC(=O)NC1CC(OC)C1` (stereo not shown), 4.59%.
For `CS(=O)(=O)OC1CCOC(c2cccnc2)C1` (stereo not shown), the Inhibition % is 6.42%.
For `CCCSCc1cccc(B2OC(C)(C)C(C)(C)O2)c1`, the Inhibition % is listed as -1.56%.
Consider `NC(=O)c1ccccc1NC(=O)CCl`, for which the Inhibition % amounted to 0.06%.
To `CC(C)c1nn(C)cc1CN(C)C(=O)c1cccnc1S` belongs 11.2%.
To `C=CC(=O)N(Cc1cccs1)c1ccc2c(c1)OCCO2` belongs 7.71%; to `C=CC(=O)NCC1(C)CC2CC2C1` (stereo not shown), 9.96%.
Then `C=CC(=O)N1CCC(c2ncco2)CC1`, with -1.83%.
For `O=C(NCC(F)(F)F)n1ccnc1`, the Inhibition % is recorded as 6.27%.
As to `Cc1nc(C#N)c(NCc2ccccc2)o1`, the Inhibition % is reported as 5.82%.
To `O=C(N1CCCCCC1)n1ccnc1` belongs 10.3%; to `CCc1cnccc1C(=O)N1CCCCC1C1OCCO1` (stereo not shown), 10.2%; to `N#CC(=Cc1cccc(F)c1F)C(N)=O`, 11.5%.
To `C=CCNC(=O)C(C#N)=CC1=Cc2ccccc2OC1` belongs 11.3%; to `O=S(=O)(C=Cc1ccccc1)NCc1nnc2n1CCC2`, 11.5%.
To `C=CC(=O)Nc1cnn(COC)c1` belongs 17.1%; to `CCCNC(=O)C(C#N)=Cc1oc(C)nc1C`, 19.4%; to `O=S(=O)(F)CCN1c2ccccc2CC1CO` (stereo not shown), 19%.
In the case of `O=C1N[C@H](C(=O)O)CS1`, the Inhibition % is 27%.
To `C=CC(=O)N1CCSCC1c1nccs1` (stereo not shown) belongs 4.55%; to `COc1cc(C)c(S(=O)(=O)n2cccn2)cc1C`, 3.89%.
To `COc1ccc(C2CCCN2C(=O)CCl)c(OC)c1` (stereo not shown) belongs 20.8%; to `CC(=O)Nc1ccc(SC2CC(C)OC2=O)cc1` (stereo not shown), 2.06%; to `CC1(C)OB(c2cc3ccccc3cc2Br)OC1(C)C`, 11.9%.
To `O=C(CCl)c1ccc(O)cc1` belongs 86.7%.
Regarding `C=CC(=O)NC(C)C12CCCCC1C2` (stereo not shown), the Inhibition % is on record as 2.87%.
As for `CC1CCC(C)N(C(=O)c2cc(B(O)O)ccc2F)C1` (stereo not shown), the Inhibition % came out at 0.286%.
Then `O=C1CCCN1CCCl`, with 5.09%; and `CCOc1ccc(S(=O)(=O)n2cccn2)cc1`, with 9.76%.
`O=S(=O)(F)c1ccc2c(c1)NCC2`: the Inhibition % stood at 26.6%.
To `N#Cc1ccc2cc[nH]c2n1` belongs 68.4%; to `N#Cc1cccc(NC(=O)CCl)c1`, 7.05%; to `CC(=O)Nc1ccc(Sc2nccnc2C#N)cc1`, 18.2%.
`CCOCOc1cnccc1B1OC(C)(C)C(C)(C)O1`: the Inhibition % came out at 12.4%.
Then `Cc1nc(CN(C#N)c2ccc(F)cc2)oc1C`, with 13.5%.
To `C=CC(=O)N1CCOc2ncccc21` belongs 20%.
Then `CC1(C)OB(c2cncc(F)c2)OC1(C)C`, with 4.04%; and `C=CC(=O)NCCc1cnc2c(Cl)cnn2c1`, with 9.87%; and `O=C(CCc1ccc(S(=O)(=O)F)cc1)NC1CCCC1`, with 2.71%.
In the case of `C=CC(=O)N1CCN(C(=O)CN2C(=O)CCC2=O)CC1`, the Inhibition % is 6.08%.
Then `CC(NC(=O)CCl)c1ccc(Cl)c(Cl)c1` (stereo not shown), with 7.15%; and `C=CC(=O)N1CCOc2cc(F)ccc21`, with 9.72%.
Then `Cc1nc(Sc2nccnc2C#N)oc1C`, with 9.16%; and `OCC1(Cl)CCOCC1`, with 6.53%; and `C=CC(=O)Nc1cc2ccccn2n1`, with 30.2%.
To `Cc1nc2cc(B3OC(C)(C)C(C)(C)O3)ccc2n1C.Cl` belongs 14.5%; to `Cc1ccc(F)cc1B1OC(C)(C)C(C)(C)O1`, 3.3%.
On to `CC1(C)OB(c2ccccc2Cl)OC1(C)C`, for which the Inhibition % is 1.84%.
Turning to `O=C(CC1OCCCO1)Nc1n[nH]c2cc(F)ccc12`, the Inhibition % amounted to 12.7%.
As to `O=C1CCC(=O)N1CCc1cccc(OC(F)(F)F)c1`, the Inhibition % is given as -3.11%.
Consider `C=CC(=O)N1CCc2nn(C(C)C)c(=O)cc2C1`, for which the Inhibition % was determined as 15.2%.
To `C=CC(=O)N1CCN(c2ncc(C)s2)CC1` belongs 9%; to `Cc1csc(N2CCN(C3CC(C)OC3=O)CC2C)n1` (stereo not shown), 1.27%; to `COc1cc(C)c(Cl)cc1S(=O)(=O)n1nc(C)cc1C`, -0.373%.
To `CNc1nc(SC2CCOC2=O)nc2ccccc12` (stereo not shown) belongs 6.64%.
Then `COC(=O)c1ccc(CN(C#N)c2ccccc2)o1`, with 14.6%.
`Cc1onc(-c2ccc(F)cc2)c1B1OC(C)(C)C(C)(C)O1`: the Inhibition % worked out at 5.39%.
Consider `C=CC(=O)N1CC(C(=O)NC)C1`, for which the Inhibition % is given as 4.07%.
Regarding `Cc1cc(-c2ccccc2)nc(S)n1`, the Inhibition % stood at 2.88%.
Then `OB(O)c1ccc(Oc2cccc(C(F)(F)F)c2)cc1`, with -1.1%.
To `O=C(N1CCCCC1)n1ccnc1` belongs 4.01%.
Regarding `O=C(CCl)NNC(=O)C1CCC1`, the Inhibition % came out at 0.122%.
Then `C=CC(=O)NC(C)c1cnn(C)c1C` (stereo not shown), with 5.96%; and `OB(O)c1ccc(OCc2ccccn2)cc1`, with 0.486%.
Take `C=CC(=O)NCC1CCN(CCC)CC1`: the Inhibition % is 34.8%.
Regarding `O=C1N[C@@H]2CCCC[C@H]12` (racemic), the Inhibition % was 7.88%.
Then `CS(=O)(=O)Nc1ccc(C(=O)CCl)cc1`, with 75.1%; and `CCCNC(=O)C(C#N)=Cc1cnc2c(C)cccn12`, with 0.295%.
Consider `C=CC(=O)NCC1(N2CCOCC2)CC1`, for which the Inhibition % was 4.75%.
For the compound `O=C(CCl)Nc1ccc(NC(=O)c2cccs2)cc1`, the Inhibition % is reported as 28%.
Then `O=C(CCl)N(Cc1ccccc1)C1CC1`, with 18.1%; and `CCc1nccn1S(=O)(=O)c1cc(Cl)ccc1OC`, with 2.99%; and `O=C(NC1CCN(C2CCOC2=O)CC1)c1cccs1` (stereo not shown), with 7.52%.
To `O=S(=O)(F)c1ccc(S(=O)(=O)Nc2nccs2)cc1` belongs 64%; to `ClCC1COCCO1` (stereo not shown), -2.68%; to `NC(=O)c1ccc(NS(=O)(=O)C=Cc2ccccc2)cc1`, 5.56%.
Consider `N#Cc1cccc(OCC(F)(F)F)n1`, for which the Inhibition % was -0.809%.
To `Cc1cc(C)n(CC2CCCCN2C2CC(C)OC2=O)n1` (stereo not shown) belongs 7.52%.
Consider `N#Cc1ccn(-c2ccccc2)n1`, for which the Inhibition % is 6.25%.
Then `C=CC(=O)NC1CCN(C)C1c1ccccc1` (stereo not shown), with 6.77%; and `N#Cc1ncc(O)cn1`, with 2.25%.
As to `O=C(NCCC1=CCOCC1)c1cccnc1S`, the Inhibition % was 2.7%.
To `O=C(O)c1ccnnc1S` belongs 83.3%; to `Cl.ClCCNC1CCCCC1`, 1.36%.
Then `NC(=O)c1coc(C(=O)CCl)c1`, with 96.3%; and `CC1Cc2cc(S(N)(=O)=O)ccc2N1C(=O)CCl` (stereo not shown), with 23.7%.
To `Cc1ccc(NC(=O)Cn2cnc(C#N)n2)cc1C` belongs -3.95%; to `Cc1cc(S(=O)(=O)n2cccn2)c(Cl)cc1Cl`, 11.9%; to `COc1ccc(C=C(C#N)C(N)=O)c(OC)c1`, 1.55%.
`C=CC(=O)N1CCN(C(=O)CC(F)(F)F)CC1`: the Inhibition % was 12.4%.
To `O=C(Nc1ccc(F)nc1)c1cccnc1S` belongs 8.16%; to `OCC1(CC2CO2)CCOCC1` (stereo not shown), 15.8%; to `N#Cc1ncccc1OCCc1ccccc1`, 13.6%.
For `Cn1cc(CN[C@H]2CCO[C@@H]2c2ccnn2C)cc1C#N`, the Inhibition % was found to be 7.61%.
To `CN(C)C(=O)Oc1ccc2ccccc2c1` belongs 2.87%; to `O=c1c2ccccc2cnn1CC1CO1` (stereo not shown), 8.19%; to `N#Cc1ncn(Cc2ccc(F)cc2Cl)n1`, 0.898%.
Then `CN(C)c1oc(CO)nc1C#N`, with 4.81%; and `C=CC(=O)NC(c1nc(C)cs1)C(F)(F)F` (stereo not shown), with 6.31%.
Regarding `C=CC(=O)NC(c1ccncc1)c1cc(F)ccc1F` (stereo not shown), the Inhibition % is on record as 5.39%.
For the compound `C=CC(=O)NCCN1C(=O)Cc2ccccc21`, the Inhibition % stood at 11%.
To `CO[C@H]1C[C@@H](C(N)=O)N(Cc2cc(C#N)n(C)c2)C1` belongs 9.5%; to `C=CC(=O)N1CCOC(CCC)C1` (stereo not shown), 11%.
Then `Cc1cc(C)nc(C#N)c1`, with 9.14%.
For `CC1CC(NC(=O)c2c[nH]c(C#N)c2)=NO1` (stereo not shown), the Inhibition % was determined as 11.6%.
In the case of `Cc1ccsc1C=C(C#N)C(=O)NCC1CCCO1` (stereo not shown), the Inhibition % was 2.9%.
Then `C=CC(=O)NC1CCN(c2ccccc2)C1=O` (stereo not shown), with 10.9%; and `C=CC(=O)N1C[C@@H]2CSC[C@]2(C)C1` (racemic), with 9.51%; and `C=CC(=O)N1CCSCC1(C)C`, with 9%.
Consider `O=C(CCl)N1CCCCCCC1`, for which the Inhibition % is 28.6%.
Then `O=C(CN1C(=O)CCC1=O)Nc1ccc(Cl)cc1F`, with 1.92%.
To `Cc1ccc2nc(-c3ccc(NC(=O)CCl)cc3)sc2c1` belongs 5.11%; to `CC1CC1C(=O)N1CCN(C(=O)Oc2ccccc2)CC1` (stereo not shown), 3.44%; to `C=CC(=O)N(CC(N)=O)C1CC1`, 10.4%.
Then `C=CC(=O)N1CCN(C2CC2)C(C#N)C1` (stereo not shown), with 17%; and `N#CC(=Cc1cccs1)C(N)=O`, with 10.8%.
Consider `Cc1cn(S(=O)(=O)c2ccc(Cl)c(C)c2Cl)cn1`, for which the Inhibition % is listed as 7.53%.
`Cc1csc(CC(=O)NNC(=O)CCl)n1.Cl`: the Inhibition % amounted to 0.415%.
Then `CN(Cc1ccc(O)cc1)c1ccc(C#N)nc1`, with 8.06%.
Then `C=CC(=O)NC[C@@H]1C[C@H](F)CN1c1nnc(C)o1`, with 6.39%; and `CCOC(=O)c1c(NC(=O)CCl)sc2c1CCC(C)C2` (stereo not shown), with 0.794%.
